Variants at the background level are over-represented here.
B1: TPR 5TU (parent)
chain: GGAUCUUCUCGAUCUAACAAAAAAGACAAAUCUGCCACAAAGCUUGAGAGCAUCUUCGGAUGCAGAGGCGGCAGCCUUCGGUGGCGCGAUAGCGCCAACGUUCUCAACUAUGACACGCAAAACGCGUGCUCCGUUGAAUGGAGUUUAUCAUG

Variants of: B1
Experiment: polymerase ribozyme fitness, log enrichment relative to wild type (log ratio); higher = more active; in vitro selection for triplet polymerase activity
Summary of the method: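 In triplicate, a single round of in vitro selection was run on each mutant library, PCR-built and transcribed, covering one subunit of a heterodimeric triplet polymerase ribozyme. Frozen incubation at −7 °C followed annealing with a biotinylated primer, partner subunit and triplets, and extended constructs were then gel-excised, streptavidin-captured and taken through RT-PCR. Fitness is the logarithm of genotype enrichment over wild-type enrichment, from inverse-variance-weighted replicate averages of Illumina-sequenced inputs and outputs. […] only genotypes with ≥10 input reads and ≥1 read per output were kept.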

Row | Variant | polymerase ribozyme fitness (log ratio)
1 | C85G A106G | -2.59
2 | C85A G92U G117U | -2.26
3 | G84A C85U U90A C96G C105U A138C U148C C149U U151C | ≤ -4.2
4 | C85U A98G | -0.688
5 | G83U A142C U145C | -3.76
6 | G83U A120U A137C | -3.31
7 | G83C C118U | -1.34
8 | G83C A106G G112A A142U | ≤ -4.2
9 | G83U C87U A89C C123A C125U | -1.33
10 | G83A G86U A107C | ≤ -4.2
11 | G84A A106C U109G A137G A150C | ≤ -4.2
12 | C85G U102G C129U A150C | ≤ -4.2
13 | G83C A91U | ≤ -4.2
14 | G83A C93G C108U | ≤ -4.2
15 | C85A G94A G128C | -3.21
16 | G83U C93U | -2.69
17 | G84U C123A | -1.79
18 | C85A A98G C116U A120C A147U | 0.389
19 | G84C C87A | ≤ -4.2
20 | G84A G94C C116G C118A G141A | ≤ -4.2
21 | G84A C118A A142C U144C | ≤ -4.2

Row | Variant | polymerase ribozyme fitness (log ratio)
22 | G84A U90A | ≤ -4.2
23 | C85A G88U C95G A97C | ≤ -4.2
24 | C85G A89G | ≤ -4.2
25 | G84A C131G | -3.02
26 | G84C A106U A113U U144G | ≤ -4.2
27 | G84A G88A A137U | ≤ -4.2
28 | C85A G117A | -1.76
29 | C85G | -2.05
30 | C85A | -1.28
31 | C85U | -0.513
32 | G83C C103A U127A G143U | ≤ -4.2
33 | G84A C93U C108G A137U | ≤ -4.2
34 | C85A G136C | -4.19
35 | C85A C125A C129A U139G | ≤ -4.2
36 | G84A C87G C95A G124A A147U | ≤ -4.2
37 | G84A A150C | -3
38 | G83C A106G | -0.352
39 | G84A G112A U139A | ≤ -4.2
40 | G83U C87A | ≤ -4.2
41 | C85G C93G G136A A142C | ≤ -4.2
42 | G84U A106U | -2.69

Row | Variant | polymerase ribozyme fitness (log ratio)
43 | C85A C103A G152A | ≤ -4.2
44 | C85A A150C | ≤ -4.2
45 | C85A U139C U145C | ≤ -4.2
46 | G84U A91G U144G | -1.53
47 | G83C C95G | ≤ -4.2
48 | G83C G140A U148A | ≤ -4.2
49 | G83U A150G | -3.14
50 | G84U A107G C114U U144A | ≤ -4.2
51 | G84A U145A | 0.189
52 | G84A C103G C149U | -3.35
53 | C85G A97C U102A C103A G124C A137U | ≤ -4.2
54 | C85A G124C | -1.69
55 | G83U G88C C123G U148G C149U | ≤ -4.2
56 | C85G C114A | ≤ -4.2
57 | C85U A115U G140A | -3.77
58 | G83C C118A A142G | -2.35
59 | G84U G92C C99U | ≤ -4.2
60 | G84U A97U G136C | ≤ -4.2
61 | C85G G117C G136A C149G | ≤ -4.2
62 | G84A G124A | -0.287
63 | C85G U139C G143A | ≤ -4.2

Row | Variant | polymerase ribozyme fitness (log ratio)
64 | C85G G143C U148C | ≤ -4.2
65 | C85A A98U C108A U134G | ≤ -4.2
66 | G84U C85G | ≤ -4.2
67 | C85G U90C A110U | ≤ -4.2
68 | G84U C87A A98G C116A U134G U135A G136A | ≤ -4.2
69 | G83U C87U U127G U130A U146A G152C | ≤ -4.2
70 | C85A C93U | ≤ -4.2
71 | G84A G133C G141C | -2.83
72 | C85G U135C A138C | ≤ -4.2
73 | G84A A106U G141U | -0.79
74 | C85G C87A A119U G141U | ≤ -4.2
75 | C85G A97U | ≤ -4.2
76 | C85G A142C | -2.98
77 | G83C C95G U148G | ≤ -4.2
78 | G84U A110U | ≤ -4.2
79 | G84A C85U G88A C99A C131G U139C | ≤ -4.2
80 | C85A G112U | ≤ -4.2
81 | G84C C118A U148A | ≤ -4.2
82 | C85U A98U G117A | -0.373
83 | C85G G117U G133U U148A | ≤ -4.2
84 | C85G A97G U139G | ≤ -4.2

Source: the RNAGym collection of RNA variant scans (doi:10.1073/pnas.2313332121)
